B1: Library 5-1 D2: cAMP sensor; SEQID 7 in Table 1, SEQ ID NO: 8 in Table 3 (protein)
chain: MVAAHAAHSSSSAEWIACLDKRPLERSSEDVDIIFTRLKEVKAFEKFHPNLLHQICLCGYYENLEKGITLFRQGDIGTNWYAVLAGSLDVKVSETSSHQDAVTICTLGIGTAFGESILDNTPRHATIVTRESSELLRIEQKDFKALWEKYRQYMAGLLAPPYGVMETGSNNDRIPDKENTPLIEPHVPLRPANTITKVPSEKILRAGKILRNAILSRAPHMIRDRKYHLKTYRQCCVGTELVDWMMQQTPCVHSRTQAVGMWQVLLEDGVLNHVDQEHHFQDKYLFYRFLDDEHEDAPLPTEEEKKECDEELQDTMLLLSQMGPDAHMRMILRKPPGQRTVDDLEIIYEELLHIKALSHLSTTVKRELAGVLIFESHAKGGTVLFNQGEEGTSWYIILKGSVNVVIYGKGVVCTLHEGDDFGKLALVNDAPRAASIVLREDNCHFLRVDKEDFNRILRDVLENVYIKADKQKNGIKANFKIRHNIEDGGVQLAYHYQQNTPIGDGPVLLPDNHYLSVQSILSKDPNEKRDHMVLLEFVTAAGITLGMDELYKGGTGGSMVSKGEEVSSGGVPIQVELDGDVNGHKFSVSGEGEGDATYGKLTLKFICTTGKLPVPWPTLVTTLTYGVQCFSRYPDHMKQHDFFKSAMPEGYIQERTIFFKDDGNYKTRAEVKFEGDTLVNRIELKGIDFKEDGNILGHKLEYNTRVEANTVRLKEHDQDVLVLEKVPAGNRASNQGNSQPQQKYTVMSGTPEKILEHFLETIRLEATLNEATDSVLNDFIMMHCVFMPNTQLCPALVAHYHAQPSQGTEQEKMDYALNNKRRVIRLVLQWAAMYGDLLQEDDVSMAFLEEFYVSVSDDARMIAALKEQLPELEKIVKQISEDAKAPQKKHKVLLQQFNTGDERAQKRQPIRGSDEVLFKVYCMDPTYTTIRVPVATSVKEVISAVADKLGSGEGLIIVKMSSGGEKVVLKPNDVSVFMTLTINGRLFACPREQFDSLTPLPEQEGPTVGTVGTFELMSSKDLAYQMTIYDWELFNCVHELELIYHTFGRHNFKKTTANLDLFLRRFNEIQFWVVTEICLCSQLSKRVQLLKKFIKIAAHCKEYKNLNSFFAIVMGLSNVAVSRLALTWEKLPSKFKKFYAEFESLMDPSRNHRAYRLTVAKLEPPLIPFMPLLIKDMTFTHEGNKTFIDNLVNFEKMRMIANTARTVRYYRSQPFNPDAAQANKNHQDVRSYVRQLNVIDNQRTLSQMSHRLEPRRP
B2: Library 5-1 G12: cAMP sensor; SEQID 8 in Table 1, SEQ ID NO: 9 in Table 3 (protein)
chain: MVAAHAAHSSSSAEWIACLDKRPLERSSEDVDIIFTRLKEVKAFEKFHPNLLHQICLCGYYENLEKGITLFRQGDIGTNWYAVLAGSLDVKVSETSSHQDAVTICTLGIGTAFGESILDNTPRHATIVTRESSELLRIEQKDFKALWEKYRQYMAGLLAPPYGVMETGSNNDRIPDKENTPLIEPHVPLRPANTITKVPSEKILRAGKILRNAILSRAPHMIRDRKYHLKTYRQCCVGTELVDWMMQQTPCVHSRTQAVGMWQVLLEDGVLNHVDQEHHFQDKYLFYRFLDDEHEDAPLPTEEEKKECDEELQDTMLLLSQMGPDAHMRMILRKPPGQRTVDDLEIIYEELLHIKALSHLSTTVKRELAGVLIFESHAKGGTVLFNQGEEGTSWYIILKGSVNVVIYGKGVVCTLHEGDDFGKLALVNDAPRAASIVLREDNCHFLRVDKEDFNRILRDVLENVYIKADKQKNGIKANFKIRHNIEDGGVQLAYHYQQNTPIGDGPVLLPDNHYLSVQSILSKDPNEKRDHMVLLEFVTAAGITLGMDELYKGGTGGSMVSKGEELFTGVVPIQVELDGDVNGHKFSVSGEGEGDATYGKLTLKFICTTGKLPVPWPTLVTTLTYGVQCFSRYPDHMKQHDFFKSAMPEGYIQERTIFFKDDGNYKTRAEVKFEGDTLVNRIELKGIDFKEDGNILGHKLEYNTRANTVRLKEHDQDVLVLEKVPAGNRASNQGNSQPQQKYTVMSGTPEKILEHFLETIRLEATLNEATDSVLNDFIMMHCVFMPNTQLCPALVAHYHAQPSQGTEQEKMDYALNNKRRVIRLVLQWAAMYGDLLQEDDVSMAFLEEFYVSVSDDARMIAALKEQLPELEKIVKQISEDAKAPQKKHKVLLQQFNTGDERAQKRQPIRGSDEVLFKVYCMDPTYTTIRVPVATSVKEVISAVADKLGSGEGLIIVKMSSGGEKVVLKPNDVSVFMTLTINGRLFACPREQFDSLTPLPEQEGPTVGTVGTFELMSSKDLAYQMTIYDWELFNCVHELELIYHTFGRHNFKKTTANLDLFLRRFNEIQFWVVTEICLCSQLSKRVQLLKKFIKIAAHCKEYKNLNSFFAIVMGLSNVAVSRLALTWEKLPSKFKKFYAEFESLMDPSRNHRAYRLTVAKLEPPLIPFMPLLIKDMTFTHEGNKTFIDNLVNFEKMRMIANTARTVRYYRSQPFNPDAAQANKNHQDVRSYVRQLNVIDNQRTLSQMSHRLEPRRP
B3: Library 2-1 B12: cAMP sensor; SEQID 9 in Table 1, SEQ ID NO: 10 in Table 3 (protein)
chain: MVAAHAAHSSSSAEWIACLDKRPLERSSEDVDIIFTRLKEVKAFEKFHPNLLHQICLCGYYENLEKGITLFRQGDIGTNWYAVLAGSLDVKVSETSSHQDAVTICTLGIGTAFGESILDNTPRHATIVTRESSELLRIEQKDFKALWEKYRQYMAGLLAPPYGVMETGSNNDRIPDKENTPLIEPHVPLRPANTITKVPSEKILRAGKILRNAILSRAPHMIRDRKYHLKTYRQCCVGTELVDWMMQQTPCVHSRTQAVGMWQVLLEDGVLNHVDQEHHFQDKYLFYRFLDDEHEDAPLPTEEEKKECDEELQDTMLLLSQMGPDAHMRMILRKPPGQRTVDDLEIIYEELLHIKALSHLSTTVKRELAGVLIFESHAKGGTVLFNQGEEGTSWYIILKGSVNVVIYGKGVVCTLHEGDDFGKLALVNDAPRAASIVLREDNCHFLRVDKEDFNRILRLENVYIKADKQKNGIKANFKIRHNIEDGGVQLAYHYQQNTPIGDGPVLLPDNHYLSVQSILSKDPNEKRDHMVLLEFVTAAGITLGMDELYKGGTGGSMVSKGEELFTGVVPIQVELDGDVNGHKFSVSGEGEGDATYGKLTLKFICTTGKLPVPWPTLVTTLTYGVQCFSRYPDHMKQHDFFKSAMPEGYIQERTIFFKDDGNYKTRAEVKFEGDTLVNRIELKGIDFKEDGNILGHKLEYNTRRILRDVEANTVRLKEHDQDVLVLEKVPAGNRASNQGNSQPQQKYTVMSGTPEKILEHFLETIRLEATLNEATDSVLNDFIMMHCVFMPNTQLCPALVAHYHAQPSQGTEQEKMDYALNNKRRVIRLVLQWAAMYGDLLQEDDVSMAFLEEFYVSVSDDARMIAALKEQLPELEKIVKQISEDAKAPQKKHKVLLQQFNTGDERAQKRQPIRGSDEVLFKVYCMDPTYTTIRVPVATSVKEVISAVADKLGSGEGLIIVKMSSGGEKVVLKPNDVSVFMTLTINGRLFACPREQFDSLTPLPEQEGPTVGTVGTFELMSSKDLAYQMTIYDWELFNCVHELELIYHTFGRHNFKKTTANLDLFLRRFNEIQFWVVTEICLCSQLSKRVQLLKKFIKIAAHCKEYKNLNSFFAIVMGLSNVAVSRLALTWEKLPSKFKKFYAEFESLMDPSRNHRAYRLTVAKLEPPLIPFMPLLIKDMTFTHEGNKTFIDNLVNFEKMRMIANTARTVRYYRSQPFNPDAAQANKNHQDVRSYVRQLNVIDNQRTLSQMSHRLEPRRP
B4: Library 1 C2: cAMP sensor; SEQID 10 in Table 1, SEQ ID NO: 11 in Table 3 (protein)
chain: MVAAHAAHSSSSAEWIACLDKRPLERSSEDVDIIFTRLKEVKAFEKFHPNLLHQICLCGYYENLEKGITLFRQGDIGTNWYAVLAGSLDVKVSETSSHQDAVTICTLGIGTAFGESILDNTPRHATIVTRESSELLRIEQKDFKALWEKYRQYMAGLLAPPYGVMETGSNNDRIPDKENTPLIEPHVPLRPANTITKVPSEKILRAGKILRNAILSRAPHMIRDRKYHLKTYRQCCVGTELVDWMMQQTPCVHSRTQAVGMWQVLLEDGVLNHVDQEHHFQDKYLFYRFLDDEHEDAPLPTEEEKKECDEELQDTMLLLSQMGPDAHMRMILRKPPGQRTVDDLEIIYEELLHIKALSHLSTTVKRELAGVLIFESHAKGGTVLFNQGEEGTSWYIILKGSVNVVIYGKGVVCTLHEGDDFGKLALVNDAPRAASIVLREDNCHFLRVDKEDFNRILRDVLENVYIKADKQKNGIKANFKIRHNIEDGGVQLAYHYQQNTPIGDGPVLLPDNHYLSVQSILSKDPNEKRDHMVLLEFVTAAGITLGMDELYKGGTGGSMVSKGEELFTGVVPIQVELDGDVNGHKFSVSGEGEGDATYGKLTLKFICTTGKLPVPWPTLVTTLTYGVQCFSRYPDHMKQHDFFKSAMPEGYIQERTIFFKDDGNYKTRAEVKFEGDTLVNRIELKGIDFKEDGNILGHKLEYNTREANTVRLKEHDQDVLVLEKVPAGNRASNQGNSQPQQKYTVMSGTPEKILEHFLETIRLEATLNEATDSVLNDFIMMHCVFMPNTQLCPALVAHYHAQPSQGTEQEKMDYALNNKRRVIRLVLQWAAMYGDLLQEDDVSMAFLEEFYVSVSDDARMIAALKEQLPELEKIVKQISEDAKAPQKKHKVLLQQFNTGDERAQKRQPIRGSDEVLFKVYCMDPTYTTIRVPVATSVKEVISAVADKLGSGEGLIIVKMSSGGEKVVLKPNDVSVFMTLTINGRLFACPREQFDSLTPLPEQEGPTVGTVGTFELMSSKDLAYQMTIYDWELFNCVHELELIYHTFGRHNFKKTTANLDLFLRRFNEIQFWVVTEICLCSQLSKRVQLLKKFIKIAAHCKEYKNLNSFFAIVMGLSNVAVSRLALTWEKLPSKFKKFYAEFESLMDPSRNHRAYRLTVAKLEPPLIPFMPLLIKDMTFTHEGNKTFIDNLVNFEKMRMIANTARTVRYYRSQPFNPDAAQANKNHQDVRSYVRQLNVIDNQRTLSQMSHRLEPRRP

Tested on: cAMP
Experiment: Fluorescence response of cAMP sensors to isoproterenol in HEK 293 cells co-expressing the beta adrenergic receptor
Format: cell-based, human
Details: in response to isoproternol
Procedure: To test the functionality of these 28 prototype sensors, each construct was co-expressed with the beta adrenergic receptor, which couples to the Gs signaling pathway when activated by isoproteronol, in HEK 293 cells, and the fluorescence measured as described below. Briefly, 96-well glass-bottom plates were coated with Poly-D-Lysine (Fisher Scientific, Pittsburgh, Pa.) and HEK 293 were seeded and cultured in EMEM (ATCC, Manassas, Va.) supplemented with 10% fetal bovine serum and Penicillin-Streptomycin at 37 […] and 30 ng of beta adrenergic receptor per well, using Lipofectamine 2000 Transfection Reagent (Life Technologies, Grand Island, N.Y.) according to the manufacturer's protocol, and incubated for 24-48 hours at 37° C. in 5% CO2.
Prior to screening transfected cells for fluorescence, he EMEM culture medium was removed and 1×DPBS added to each well. A Zeiss Axiovert S100TV inverted microscope equipped with computer controlled excitation/emission filter wheels, shutters, and a Qimaging Retiga Exi CCD camera (Surrey, BC Canada) was used to image cells at 25e A) supplemented with 10% fetal bovine serum and Penicillin-Streptomycin at 37hn filters were used to resolve the green fluorescence from the cAMP sensors. Cells were analyzed for increases or decreases in fluorescence intensity upon addition of isoproternol, DMSO, forskolin and IBMX. To analyze the image stacks, background fluorescence was defined as a region of the image that contained no cells. The average value of this region was subtracted frame by frame from the measurements of the mean pixel values of the fluorescent cells. Fluorescence intensity data was plotted and analyzed with IGOR (Wavemetrics, Oswego, Oreg.).
For transient expression and screening in an automated fluorescence plate reader, HEK 293T cells were cultured in Corning Co-Star Polystyrene 96-well plates coated with Poly-D-Lysine. HEK293T cells were plated at 35,000 cells/well in 100 μl growth medium per well without antibiotics so that the cells would be 90-95% confluent at the time of transfection (approximately 24 hours later). For each transfection (i.e. one well in a 96-well plate), 160 ng of plasmid DNA (120 ng sensor+40 ng receptor) was diluted in […] and then the mixture was replaced with fresh medium. Prior to scanning a plate on the Biotek Synergy Mx, EMEM culture medium was replaced with 250 μl of 1×DPBS per well. Plates were read at 25° C., using monochromators set to 488/20 nm excitation and 530/20 nm emission to resolve the green fluorescence from the cAMP sensor.

Row | Molecule | Relative Change in Fluorescence [%]
1 | B1 | 39
2 | B2 | −39
3 | B3 | −37
4 | B4 | 36

Source: US11366114B2, “Genetically encoded fluorescent sensors for detecting ligand bias and intracellular signaling through cAMP pathways” (MONTANA MOLECULAR LLC, priority 2013, dated 2022)
